# Laboratory results as given in article PMC4336329 (PLoS ONE, 2015).
# The campaign covered roughly 310,000 compounds. About 14,000 (4.5%) showed an effect of 50% or more. Effects have a minus sign here. The list shows a part of the results.
# Biological target: human ether-à-go-go-related gene (hERG) potassium channel (human, UniProt Q12809)
# Assay: primary screen, population patch clamp on CHO cells stably expressing hERG
# 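Further: peak tail current of the secondary pulse compared with the same well before compound.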
# Sequence of human ether-à-go-go-related gene (hERG) potassium channel (Q12809 whole entry, looked up): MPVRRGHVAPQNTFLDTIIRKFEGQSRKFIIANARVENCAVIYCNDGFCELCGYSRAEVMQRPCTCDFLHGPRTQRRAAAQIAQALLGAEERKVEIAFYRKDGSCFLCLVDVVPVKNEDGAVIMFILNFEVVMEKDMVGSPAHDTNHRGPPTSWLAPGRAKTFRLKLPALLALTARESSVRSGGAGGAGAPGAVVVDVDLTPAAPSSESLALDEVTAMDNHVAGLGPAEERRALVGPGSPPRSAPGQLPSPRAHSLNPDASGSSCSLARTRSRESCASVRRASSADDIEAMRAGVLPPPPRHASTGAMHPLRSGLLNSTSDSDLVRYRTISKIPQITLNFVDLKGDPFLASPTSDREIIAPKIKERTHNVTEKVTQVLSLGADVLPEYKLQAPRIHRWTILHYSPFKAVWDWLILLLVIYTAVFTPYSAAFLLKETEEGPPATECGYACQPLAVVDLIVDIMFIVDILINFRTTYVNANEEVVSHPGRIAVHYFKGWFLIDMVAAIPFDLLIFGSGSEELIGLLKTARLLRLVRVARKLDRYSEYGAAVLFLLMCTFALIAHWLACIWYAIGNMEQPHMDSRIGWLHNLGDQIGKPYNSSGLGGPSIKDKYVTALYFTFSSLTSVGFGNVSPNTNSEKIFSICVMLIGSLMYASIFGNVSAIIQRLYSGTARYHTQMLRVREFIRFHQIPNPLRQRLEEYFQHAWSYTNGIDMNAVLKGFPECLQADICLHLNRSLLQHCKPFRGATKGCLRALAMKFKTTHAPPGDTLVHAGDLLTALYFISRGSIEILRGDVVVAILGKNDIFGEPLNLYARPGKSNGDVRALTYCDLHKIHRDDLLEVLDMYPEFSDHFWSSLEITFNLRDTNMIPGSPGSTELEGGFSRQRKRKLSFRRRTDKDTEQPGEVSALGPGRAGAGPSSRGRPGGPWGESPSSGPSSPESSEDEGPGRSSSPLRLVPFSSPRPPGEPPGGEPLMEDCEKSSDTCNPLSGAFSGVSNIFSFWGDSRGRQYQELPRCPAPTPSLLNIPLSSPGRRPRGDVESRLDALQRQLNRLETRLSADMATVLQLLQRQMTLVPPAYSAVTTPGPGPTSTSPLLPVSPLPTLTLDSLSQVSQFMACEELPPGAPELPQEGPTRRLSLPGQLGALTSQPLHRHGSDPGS
row,SMILES,"hERG current change (%, negative = inhibition) at 10uM"
1,CC1CCc2nc(NC(=O)Nc3ccc4c(c3)OCO4)sc2C1 (centres unmarked),2.04%
2,CCOc1cc(CNC(=O)CCCn2c(=O)c3cccn3c3cccnc32)cc(OCC)c1OCC,-42.3%
3,CCc1ccnc(NC(=O)Nc2ccc(OCc3ccccc3)cc2)c1,16%
4,Cc1ccc(-n2c(C)cc(C(=O)CN3CCOCC3)c2C)cc1C,-30.1%
5,Cc1ccc(S(=O)(=O)Nc2ccc(N3CCOCC3)nc2)cc1,7.11%
6,COC(CNC(=O)Cn1nc(Cc2ccncc2)c2ccccc2c1=O)OC,18.9%
7,CCOC(=O)C1(Cc2cccc(OC)c2)CCN(C(C)COC)CC1 (centres unmarked),5.9%
8,COc1cc(/C=C2/NC(=O)N(c3cccc(Cl)c3)C2=O)ccc1O,17.5%
9,O=S(=O)(c1cccs1)N1CCN(c2ccc(F)cc2)CC1,-43.1%
10,Cc1cc(NC(=O)CCC(=O)N(CC(=O)NC2CCCC2)c2cccc(F)c2)no1,-3.17%
11,COc1cccc(CSc2nnc(-c3ccc(F)cc3)o2)c1,1.24%
12,CCc1cccc(NC(=O)C2CCN(S(=O)(=O)c3ccc4c(c3)CC(C)N4C(C)=O)CC2)c1 (centres unmarked),2.05%
13,C=CCn1c2ccccc2c2nnc(SCN3C(=O)c4ccccc4C3=O)nc21,-7.89%
14,Cc1ccc(S(=O)(=O)n2nc(OC(=O)c3cccs3)cc2N)cc1,10.9%
15,CCN(CC)S(=O)(=O)c1c(Br)cc(C)cc1Br,-28.8%
16,CCOc1cc(N2CCOCC2)c(OCC)cc1NC(=O)COc1ncnc2ccc(Br)cc12,-6.42%
17,CN1C(=O)C2CN(CCc3ccccc3)CNC2N(C)C1=O (centres unmarked),7.02%
18,O=C(Nn1cnnc1)c1ccccc1Cl,15.4%
19,CCOC(=S)SCC(=O)Nc1nc(-c2ccc(Br)cc2)cs1,-45.2%

row,SMILES,"hERG current change (%, negative = inhibition) at 10uM"
1,CNS(=O)(=O)c1cccc(C(=O)OCC(=O)c2c(N)n(C)c(=O)n(C)c2=O)c1,11.9%
2,COc1cc(NC(=O)NNC(=O)c2cc3occc3n2C)cc(OC)c1OC,26.1%
3,COc1ccc(F)cc1S(=O)(=O)Nc1cc2c3c(c1)CC(=O)N3CCC2,8.85%
4,COc1ccccc1N=NC1=C(O)CC(C)(C)CC1=O,32.9%
5,COc1cc(C2NC(=O)NC(C)=C2C(=O)Nc2cccc(C)c2C)cc(OC)c1OC (centres unmarked),19.8%
6,Cc1cc(S(=O)(=O)NC2CCN(Cc3ccccc3)CC2)c(C)cc1Cl,2.78%
7,COc1ccc(CC(=O)N/N=C/C=C/c2ccc3c(c2)OCO3)cc1OC,-2.81%
8,CCC(CC)NC(=O)CC(c1ccccc1)c1ccccc1,20.7%
9,Cc1cccc(C(=O)Nc2cccc(C(=O)N/N=C/c3ccccn3)c2)c1,-3.01%
10,O=C(CSc1n[nH]c(-c2ccncc2)n1)NCCc1ccccc1,13.2%
11,CCc1ccc(OCC(=O)N/N=C/c2cc([N+](=O)[O-])ccc2N2CCOCC2)cc1,-14.6%
12,Cc1ccc(S(=O)(=O)Nc2c(NC3CCCCC3)c3ccccc3oc2=O)cc1C,2.53%
13,CCOc1ccc(C(=O)COC(=O)Cn2cnc3c2c(=O)n(C)c(=O)n3C)cc1,-13.5%
14,CC(C)Oc1ccc(C2CC(=O)N(c3ccccc3)C2=O)cc1 (centres unmarked),6.47%
15,CC(C)c1ccc(N=C2N=C(N)c3ccccc32)cc1,-59.2%
16,COc1ccc(OC)c(C2C(C#N)=C(N)Oc3cc(C)n(Cc4ccccn4)c(=O)c32)c1 (centres unmarked),-8.03%
17,O=C(N[C@@H](Cc1ccc(Br)cc1)C(=O)O)OCC1c2ccccc2-c2ccccc21,-0.0748%
18,CCOC(=O)c1sc2nc3c(cc2c1N)C(=O)CC(C)(C)C3,25.7%
19,O=C(NCCN1CCN(c2cccc(Cl)c2)CC1)c1ccc(CSc2nc3ccncc3[nH]2)cc1,-6.99%

row,SMILES,"hERG current change (%, negative = inhibition) at 10uM"
1,COc1cc2c(cc1OC)CN(c1nc(CN3CCCCC3)nc3sc4c(c13)CCCC4)CC2,-81.2%
2,Cc1nc(Cl)sc1C(=O)Nc1cc(F)cc(F)c1,10.4%
3,CCOc1ccc(C2=Nn3c(nnc3-c3cccnc3)SC2)cc1,-20.2%
4,FC(F)(F)c1ccc(Cl)c(-n2c(Cc3cccs3)n[nH]c2=S)c1,8.56%
5,COC(=O)CC1SC(=O)NC1=O (centres unmarked),19%
6,COc1ccc(S(=O)(=O)N(C)C)cc1NC(=O)COC(=O)CC1CCCC1,-72.8%
7,COc1c(S(=O)(=O)N2CCCC2)ccc(Cl)c1Cl,-0.996%
8,Oc1ccc(Cl)cc1C1=NNC(c2cc(Br)cc3c2OCOC3)C1 (centres unmarked),21.5%
9,Cc1cccc2cc(/C=N/NC(=O)c3ccncc3)c(Cl)nc12,16.2%
10,CCOc1ccc(C2C(C(=O)/C=C/c3ccco3)=C(O)C(=O)N2CCN2CCOCC2)cc1OC (centres unmarked),11.9%
11,COc1cc(-c2n[nH]c(=S)n2-c2cc(C(F)(F)F)ccc2Cl)cc(OC)c1OC,-7.46%
12,C1CCC2(CC1)OCC1(CO2)COC2(CCCCC2)OC1,3.07%
13,COc1ccc2[nH]cc(CCNC(=S)NC3CCCC3)c2c1,-0.976%
14,CC(=NCc1ccco1)c1c(O)n(C)c(=O)n(C)c1=O,-18.9%
15,O=C(Cn1nnc(-c2ccccc2)n1)NNC(=O)c1ccco1,14.3%
16,CCOc1ccccc1N(C)C(=O)Cn1ncc2c([nH]c3ccc(C)cc32)c1=O,8%
17,CN(c1ccccc1)S(=O)(=O)c1cccc(C(=O)OCC(=O)NCc2ccco2)c1,-25.1%
18,Cc1cccc(CCNC(=O)c2cccc(N3CCCC3=O)c2)c1,-7.18%
